Over roughly 2,900 compounds, “NF-kB SEAP reporter activity, fold change vs agonist alone” has its median near 0.99; the highest 2% begin near 2.6. Some of the results follow.

The test system of assay [1] is RAW-Dual. Put plainly: NF-kB SEAP reporter activity, fold change vs agonist alone; higher = enhanced NF-kB activity. An outline of the steps: (§1)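 After 50 nL of library stock was delivered by pin tool to RAW-Dual macrophages (50,000 cells/well, DMEM, 384-well plates), a PRR agonist was added 1 h later and the plates were kept at 37 °C, 5% CO2. Twenty hours later, IRF was read from supernatant by QuantiLuc luminescence and NF-κB by QuantiBlue absorbance at 620 nm. Reporter activity is stated as fold change over agonist-alone wells. Wells with IncuCyte confluency under 70% of agonist controls in both mask sets were counted as cytotoxic.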

For assay [2], the system named is RAW-Dual. Description: NF-kB SEAP reporter activity, fold change vs agonist alone; cytotoxicity flag (confluency mask): not cytotoxic; higher = enhanced NF-kB activity. In short, it runs like this: as §1
Assay [3] concerns RAW-Dual. Put plainly: NF-kB SEAP reporter activity, fold change vs agonist alone; cytotoxicity flag (confluency mask): cytotoxic (confluency <70% of control); higher = enhanced NF-kB activity. In short, it runs like this:
as §1

Setting [4] is: library stock concentration (final ~1000-fold dilution): 10 mM, cytotoxicity flag (confluency mask): not cytotoxic, agonist: Imiquimod (TLR7) […].
The mark [5] stands for this setting: library stock concentration (final ~1000-fold dilution): 10 mM, cytotoxicity flag (confluency mask): not cytotoxic, agonist: MPLA (TLR4) […].
The mark [6] stands for this setting: agonist: ODN 1826 (TLR9) 0.5 ug/mL.
The mark [7] stands for this setting: agonist: Pam2CSK4 (TLR2/6) 0.1 ug/mL.
Where [8] appears, read: agonist: Pam3CSK4 (TLR2/1) 0.1 ug/mL.
The mark [9] stands for this setting: library stock concentration (final ~1000-fold dilution): 10 mM, cytotoxicity flag (confluency mask): cytotoxic (confluency <70% of control), agonist: Imiquimod (TLR7) […].
The mark [10] stands for this setting: library stock concentration (final ~1000-fold dilution): 10 mM, cytotoxicity flag (confluency mask): cytotoxic (confluency <70% of control), agonist: MPLA (TLR4) […].

In the case of `CC1Oc2cc(cnc2N)-c2c(nn(C)c2C#N)CN(C)C(=O)c2ccc(F)cc21` (configuration not stated), the entries for the “NF-kB SEAP reporter activity” value in the assay on RAW-Dual [1] (setting [4]) and in the assay with RAW-Dual [1] (setting [5]) were 0.784 and 0.872, respectively.
With `CC1Oc2cc(cnc2N)-c2c(nn(C)c2C#N)CN(C)C(=O)c2ccc(F)cc21` (configuration not stated) (library stock concentration (final ~1000-fold dilution): 10 mM), the “NF-kB SEAP reporter activity” value in the assay with RAW-Dual [2] (agonist: LPS (TLR4) 0.1 ug/mL) was 1.08; in the assay on RAW-Dual [2] (setting [6]), 0.894; in the assay on RAW-Dual [2] (setting [7]) it was 0.83; in the assay with RAW-Dual [2] (setting [8]) it was 0.793.
On to `Cn1nc(-c2cnc(N)c(-c3ccc(C(N)=O)c(F)c3)n2)nc1C1(c2ccccc2)CC1`, for which the “NF-kB SEAP reporter activity” value stood at 1.01 in the assay with RAW-Dual [1] (setting [4]) and 1.03 with RAW-Dual [1] (setting [5]).
In the case of `Cn1nc(-c2cnc(N)c(-c3ccc(C(N)=O)c(F)c3)n2)nc1C1(c2ccccc2)CC1` (library stock concentration (final ~1000-fold dilution): 10 mM), the “NF-kB SEAP reporter activity” value in the assay on RAW-Dual [2] (agonist: LPS (TLR4) 0.1 ug/mL) amounted to 1.2; in the assay with RAW-Dual [2] (setting [6]), 0.819; in the assay with RAW-Dual [2] (setting [7]) it was 0.852; in the assay with RAW-Dual [2] (setting [8]), 0.889.
As for `CCOC(=O)C1=C[C@]2(CC)CCCN3CCc4c(n1c1ccccc41)[C@@H]32`, the “NF-kB SEAP reporter activity” value in the assay with RAW-Dual [1] (setting [4]) was 0.79; with RAW-Dual [1] (setting [5]), 1.18.
For the compound `CCOC(=O)C1=C[C@]2(CC)CCCN3CCc4c(n1c1ccccc41)[C@@H]32` (library stock concentration (final ~1000-fold dilution): 10 mM), the “NF-kB SEAP reporter activity” value came out at 1.12 in the assay on RAW-Dual [2] (agonist: LPS (TLR4) 0.1 ug/mL), 1.02 with RAW-Dual [2] (setting [6]), 1.01 in the assay on RAW-Dual [2] (setting [7]) and 1.06 with RAW-Dual [2] (setting [8]).
On the same counts, the results for `COc1ccccc1O` (library stock concentration (final ~1000-fold dilution): 10 mM) are 1.13, 0.994, 1.1 and 1.15.
Regarding `COc1ccccc1O`, the entries for the “NF-kB SEAP reporter activity” value in the assay with RAW-Dual [1] (setting [4]) and in the assay on RAW-Dual [1] (setting [5]) were 0.812 and 0.931, respectively.
For `CNC1C(O)C(OC2C(NC(=O)C(O)CN)CC(N)C(OC3OC(CN)C(O)C(O)C3O)C2O)OCC1(C)O.O=S(=O)(O)O` (configuration not stated) (library stock concentration (final ~1000-fold dilution): 10 mM water), the “NF-kB SEAP reporter activity” value in the assay on RAW-Dual [2] (agonist: LPS (TLR4) 0.1 ug/mL) was found to be 1.03; in the assay with RAW-Dual [2] (setting [6]), 1.09; in the assay on RAW-Dual [2] (setting [7]), 1.3; in the assay on RAW-Dual [2] (setting [8]) it was 1.14.
For `CNC1C(O)C(OC2C(NC(=O)C(O)CN)CC(N)C(OC3OC(CN)C(O)C(O)C3O)C2O)OCC1(C)O.O=S(=O)(O)O` (configuration not stated), the “NF-kB SEAP reporter activity” value in the assay on RAW-Dual [1] (library stock concentration (final ~1000-fold dilution): 10 mM water, cytotoxicity flag (confluency mask): not cytotoxic, agonist: Imiquimod (TLR7) […]) worked out at 0.944; in the assay with RAW-Dual [1] (library stock concentration (final ~1000-fold dilution): 10 mM water, cytotoxicity flag (confluency mask): not cytotoxic, agonist: MPLA (TLR4) […]), 1.01.
For the compound `COc1cc(CCC(C)=O)ccc1O`, the entries for the “NF-kB SEAP reporter activity” value in the assay with RAW-Dual [1] (setting [4]) and with RAW-Dual [1] (setting [5]) were 0.986 and 1.03, respectively.
Take `COc1cc(CCC(C)=O)ccc1O` (library stock concentration (final ~1000-fold dilution): 10 mM): the “NF-kB SEAP reporter activity” value in the assay on RAW-Dual [2] (agonist: LPS (TLR4) 0.1 ug/mL) stood at 1.17; in the assay on RAW-Dual [2] (setting [6]), 1.03; in the assay on RAW-Dual [2] (setting [7]) it was 1.14; in the assay with RAW-Dual [2] (setting [8]) it was 0.982.
With `O=C1N=C(NCc2cccs2)S/C1=C\c1ccc2ncccc2c1`, the “NF-kB SEAP reporter activity” value was found to be 0.94 in the assay with RAW-Dual [1] (setting [4]) and 1.14 in the assay on RAW-Dual [1] (setting [5]).
Turning to `O=C1N=C(NCc2cccs2)S/C1=C\c1ccc2ncccc2c1` (library stock concentration (final ~1000-fold dilution): 10 mM), the “NF-kB SEAP reporter activity” value in the assay with RAW-Dual [2] (agonist: LPS (TLR4) 0.1 ug/mL) was 0.926; in the assay on RAW-Dual [2] (setting [6]) it was 0.846; in the assay with RAW-Dual [2] (setting [7]), 1.24; in the assay on RAW-Dual [2] (setting [8]), 1.15.
With `Cc1c[nH]c2nc(Nc3ccc(N4CCN(C)CC4)c(F)c3)nc(-c3cccc(CC#N)c3)c12`, the “NF-kB SEAP reporter activity” value was 0.131 in the assay with RAW-Dual [1] (setting [9]) and 0.265 with RAW-Dual [1] (setting [10]).
As to `Cc1c[nH]c2nc(Nc3ccc(N4CCN(C)CC4)c(F)c3)nc(-c3cccc(CC#N)c3)c12` (library stock concentration (final ~1000-fold dilution): 10 mM), the “NF-kB SEAP reporter activity” value in the assay with RAW-Dual [3] (agonist: LPS (TLR4) 0.1 ug/mL) was 0.261; in the assay on RAW-Dual [3] (setting [6]) it was 0.179; in the assay on RAW-Dual [3] (setting [7]) it was 0.0754; in the assay with RAW-Dual [3] (setting [8]) it was 0.204.
Take `CC(=O)OC1CC2CCC3C(CCC4(C)C3CC([N+]3(C)CCCCC3)C4OC(C)=O)C2(C)CC1N1CCCCC1` (configuration not stated): the “NF-kB SEAP reporter activity” value with RAW-Dual [1] (setting [4]) came to 0.939; in the assay on RAW-Dual [1] (setting [5]), 0.965.
With `CC(=O)OC1CC2CCC3C(CCC4(C)C3CC([N+]3(C)CCCCC3)C4OC(C)=O)C2(C)CC1N1CCCCC1` (configuration not stated) (library stock concentration (final ~1000-fold dilution): 10 mM), the “NF-kB SEAP reporter activity” value with RAW-Dual [2] (agonist: LPS (TLR4) 0.1 ug/mL) came out at 1.04; in the assay with RAW-Dual [2] (setting [6]) it was 1.02; with RAW-Dual [2] (setting [7]), 0.945; with RAW-Dual [2] (setting [8]), 1.01.
On to `C=CC(=O)N1CCN(CCCn2c(=O)c(-c3c(Cl)c(OC)cc(OC)c3Cl)cc3cnc(NC)nc32)CC1`, for which the entries for the “NF-kB SEAP reporter activity” value in the assay with RAW-Dual [1] (setting [4]) and with RAW-Dual [1] (setting [5]) were 0.952 and 1.23, respectively.
Regarding `C=CC(=O)N1CCN(CCCn2c(=O)c(-c3c(Cl)c(OC)cc(OC)c3Cl)cc3cnc(NC)nc32)CC1` (library stock concentration (final ~1000-fold dilution): 10 mM), the “NF-kB SEAP reporter activity” value is 3.2 in the assay on RAW-Dual [2] (agonist: LPS (TLR4) 0.1 ug/mL), 1.05 in the assay on RAW-Dual [2] (setting [6]), 0.933 in the assay on RAW-Dual [2] (setting [7]) and 1.15 in the assay with RAW-Dual [2] (setting [8]).
On the same counts, the results for `COc1cc(C2c3cc4c(cc3C(OC3OC5COC(C)OC5C(O)C3O)C3COC(=O)C23)OCO4)cc(OC)c1O` (configuration not stated) (library stock concentration (final ~1000-fold dilution): 10 mM) are 1.28, 1.1, 1.19 and 0.954.
Turning to `COc1cc(C2c3cc4c(cc3C(OC3OC5COC(C)OC5C(O)C3O)C3COC(=O)C23)OCO4)cc(OC)c1O` (configuration not stated), the “NF-kB SEAP reporter activity” value amounted to 1.04 in the assay with RAW-Dual [1] (setting [4]) and 1.17 with RAW-Dual [1] (setting [5]).
As for `CN(C)CC/C=C1/c2ccccc2Sc2ccc(Cl)cc21.Cl` (library stock concentration (final ~1000-fold dilution): 10 mM), the “NF-kB SEAP reporter activity” value is 1.25 in the assay on RAW-Dual [3] (agonist: LPS (TLR4) 0.1 ug/mL), 0.335 in the assay on RAW-Dual [3] (setting [6]), 0.745 with RAW-Dual [3] (setting [7]) and 0.765 with RAW-Dual [3] (setting [8]).
As for `CN(C)CC/C=C1/c2ccccc2Sc2ccc(Cl)cc21.Cl`, the “NF-kB SEAP reporter activity” value in the assay with RAW-Dual [1] (setting [10]) came to 1.48.
As for `CCCSc1nc(NC2CC2c2ccc(F)c(F)c2)c2nnn(C3CC(OCCO)C(O)C3O)c2n1` (configuration not stated), the “NF-kB SEAP reporter activity” value in the assay on RAW-Dual [1] (setting [9]) is 1.05; in the assay on RAW-Dual [1] (setting [10]), 0.94.
On to `CCCSc1nc(NC2CC2c2ccc(F)c(F)c2)c2nnn(C3CC(OCCO)C(O)C3O)c2n1` (configuration not stated) (library stock concentration (final ~1000-fold dilution): 10 mM), for which the “NF-kB SEAP reporter activity” value in the assay on RAW-Dual [3] (agonist: LPS (TLR4) 0.1 ug/mL) was found to be 1.04; in the assay with RAW-Dual [3] (setting [6]), 0.615; in the assay on RAW-Dual [3] (setting [7]) it was 0.51; in the assay with RAW-Dual [3] (setting [8]) it was 0.332.

These data come from the supplement of paper PMC10037445.
